Drawing on PubChem BioAssay (NCATS), this text covers IC50 for 18 molecules.

The other results are listed elsewhere or left out. The main result of the screen is listed elsewhere. These columns were measured beside it and carry no call. Compounds called inactive in the main read-out are mostly missing here. Words in brackets tell the shape of the fitted curve; partial curves, single points and poor fits give uncertain potencies.

As usually defined, the IC50 is the concentration that gives 50% inhibition.
Tags give direction and shape of the fitted curve.

In this assay the target is Catechol O-methyltransferase (Homo sapiens) (UniProt P21964). Put plainly: Confirmatory Screen for Target Class Profiling of Small Molecule Inhibitors of Methyltransferases (AID 1745852).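 Note: inhibitor potency for blocking SAH production.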 The conditions noted are these: MTase-Glo luminescence, SAH detection, recombinant enzyme; measured here: COMT inhibition potency.
Sequence of UniProt P21964 (P21964 whole entry, looked up): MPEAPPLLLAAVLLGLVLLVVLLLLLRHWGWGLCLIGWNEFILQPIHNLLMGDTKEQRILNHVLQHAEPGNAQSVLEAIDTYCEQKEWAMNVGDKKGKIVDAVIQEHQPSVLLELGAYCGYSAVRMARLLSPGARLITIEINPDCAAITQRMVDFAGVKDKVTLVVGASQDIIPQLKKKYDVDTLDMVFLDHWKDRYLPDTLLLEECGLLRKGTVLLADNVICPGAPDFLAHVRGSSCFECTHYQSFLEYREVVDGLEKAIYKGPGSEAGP
Consider `COc1ccc(CCNC(=O)c2ccc(CN3C(=O)CCn4nccc43)cc2)cc1OC`, for which the IC50 is 21.5 µM [falling, partial curve, poor fit]. As to `C=C1C(=O)O[C@@H]2C=C(COC(C)=O)CC/C=C(\CO)CC[C@@H]12`, the IC50 is 3.75 µM [falling, full curve]. Under `CC(C)CCC1(O)C(=O)C(C)(C)C(O[C@@H]2O[C@H](CO)[C@@H](O)[C@H](O)[C@H]2O)C(C)(C)C1O` (stereo partly drawn) stands 3.32 µM [falling, full curve]. Under `CC1(C)CCC2(C(=O)OC3OC(COC4OC(CO)C(O)C(O)C4O)C(O)C(O)C3O)CCC3(C)C(=CCC4C5(C)CCC(O)C(C)(C(=O)O)C5CCC43C)C2C1O` (stereo not drawn) stands 4.08 µM [falling, partial curve]; under `O=C(CCc1ccccc1)c1c(O)c([C@@H]2O[C@H](CO)[C@@H](O)[C@H](O)[C@H]2O)c(O)c([C@@H]2O[C@H](CO)[C@@H](O)[C@H](O)[C@H]2O)c1O`, 1.43 µM [falling, full curve]; under `CC(=O)OC/C(=C/C(=O)O)CC[C@@H]1C(C)=CC(=O)[C@@H]2C(C)(C)CCC[C@@]12C`, 11.9 µM [falling, partial curve]. Under `COc1ccc(/C=C/C(=O)O[C@@H]2[C@@H](OC(C)=O)[C@@H](OC(C)=O)[C@H](O[C@H]3[C@@H]4C=CO[C@@H](O[C@@H]5O[C@H](CO)[C@@H](O)[C@H](O)[C@H]5O)[C@@H]4[C@@]4(CO)O[C@@H]34)O[C@H]2C)cc1O` stands 1.43 µM [falling, full curve]; under `C[C@@H]1O[C@@H](OC[C@H]2O[C@@H](OCc3ccccc3)[C@H](O)[C@@H](O)[C@@H]2O)[C@H](O)[C@H](O)[C@H]1O`, 7.44 µM [falling, partial curve].

For the molecule `C[C@](Cc1ccc(O)c(O)c1)(NN)C(=O)O`, the IC50 was 7.69 µM [rising, partial curve]. For the molecule `CC1(C)CC[C@]2(C(=O)O)CC[C@]3(C)C(=CCC4[C@@]5(C)C[C@@H](O)[C@H](O)C(CO)(CO)C5CC[C@]43C)C2[C@@H]1O` (stereo partly drawn), the IC50 is 8.35 µM [falling, partial curve]. Consider `O=C(O)CC(CCc1ccccc1)OC1OC(CO)C(O)C(O)C1O` (stereo not drawn), for which the IC50 was 0.334 µM [falling, full curve]. The same measure for `CC1(C)O[C@@]2(C)CC[C@@H]1C[C@@H]2OC1OC(CO)C(O)C(O)C1O` (stereo partly drawn): 4.72 µM [falling, partial curve]. Under `C=C1C(=O)OC2C(OC(=O)C=C(C)C)C(C)=C3C(=O)C=C(C)C3C(O)C12` (stereo not drawn) stands 10.6 µM [falling, partial curve]; under `COc1cc2c(cc1O)CC[C@H]1[C@@H]2CC[C@]2(C)[C@H](O)CC[C@@H]12`, 12.1 µM [falling, partial curve]. Under `COc1cc(/C=C/c2cc(O)cc(O[C@@H]3O[C@H](CO)[C@@H](O)[C@H](O)[C@H]3O)c2)ccc1O` stands 10.5 µM [falling, partial curve]. In the case of `COc1cc(C2Oc3c(OC)cc(/C=C/C(=O)OC4CC(O)(C(=O)O)CC(O)C4O)cc3C2CO)ccc1O` (stereo not drawn), the IC50 is 8.35 µM [falling, partial curve].

`COc1ccc(CC(NC(C)=O)C(=O)O)cc1` (stereo not drawn): the IC50 was 13.6 µM [falling, partial curve]. Under `C/C(=C\CC/C(C)=C/CC[C@]1(C)CCc2cc(O)cc(C)c2O1)CC/C=C(\C)C(=O)O` stands 16.7 µM [falling, partial curve, poor fit].
